By IC50 is meant the dose at which the fit gives 50% viability; a fit beyond the top or the lowest dose is shown as a bound at that dose. The AUC spans the tested range (256-fold, ending at the top dose) of the same fit; the more sensitive the line, the further below 1. For some assays here: Where the top dose is marked as inferred, it was derived from the fitted curves, not read from the paper. For some assays here: Where an entry number is given, a second screen of the drug exists; the two often differ.
Key:
Test in all cases: Viability of human cancer cell lines after 72 h of drug (GDSC screen)
[1] = compound: CN1CCN(c2ccc([N+](=O)[O-])c3no[n+]([O-])c23)CC1 [NSC-207895]; settings: top dose 20 µM; top dose inferred
Description: (§1)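 Human cancer cell lines in 384-well plates, medium with 10% serum, drug for 72 h over a 256-fold dose range (nine 2-fold or five 4-fold steps up to the top dose). Adherent lines were fixed and stained with the nucleic acid dye Syto60, suspension lines read with resazurin; signal relative to control wells, capped at 0 and 100%. One two-parameter sigmoid per drug and line, fitted in a mixed model over all curves with the slope shared within a line.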

[2] = compound: CCOc1nc(NC(=O)Cc2cc(OC)ccc2OC)cc(N)c1C#N [JNK Inhibitor VIII]; settings: top dose 10 µM; top dose inferred
Description: as §1

[3] = compound: COCC[n+]1c2c(n(Cc3cnccn3)c1C)C(=O)c1ccccc1C2=O [YM155]; settings: top dose 5.12 µM
Description: as §1

[4] = compound: C[C@]1(O)C[C@@H](c2nc(-c3ccc4ccc(-c5ccccc5)nc4c3)c3c(N)nccn32)C1 [OSI-906]; settings: top dose 2.56 µM; top dose inferred
Description: as §1

[5] = compound: Cc1ccc(C(=O)N(CCCN)[C@@H](c2nc3cc(Cl)ccc3c(=O)n2Cc2ccccc2)C(C)C)cc1 [SB-715992]; settings: top dose 0.128 µM; top dose inferred
Description: as §1

[6] = compound: COC(=O)[C@H](CCSC)NC(=O)c1ccc(NC[C@@H](N)CS)cc1-c1ccccc1 [FTI-277]; settings: top dose 1.024 µM; top dose inferred
Description: as §1

[7] = compound: CC1=C2C[C@H]3[C@@H](CC=C4C[C@@H](O)CC[C@@]43C)[C@@H]2CC[C@]12O[C@@H]1C[C@H](C)CN[C@H]1[C@H]2C [Cyclopamine]; settings: top dose 16 µM; top dose inferred
Description: as §1

[8] = compound: CC1(C)CNc2cc(NC(=O)c3cccnc3NCc3ccncc3)ccc21 [AMG-706]; settings: top dose 2 µM; top dose inferred
Description: as §1

[9] = compound: Cc1[nH]c(/C=C2\C(=O)Nc3ccc(S(=O)(=O)Cc4c(Cl)cccc4Cl)cc32)c(C)c1C(=O)N1CCC[C@@H]1CN1CCCC1 [PHA-665752]; settings: top dose 2 µM
Description: as §1

[10] = compound: O=C(/C=C/c1cccc(S(=O)(=O)Nc2ccccc2)c1)NO [Belinostat]; settings: top dose 20 µM; top dose inferred
Description: as §1

[11] = compound: OCCCNc1cc(-c2ccnc(Nc3cccc(Cl)c3)n2)ccn1 [CGP-60474]; settings: top dose 0.256 µM; top dose inferred
Description: as §1

[12] = compound: c1ccc2c(CCNc3ccc(Nc4ccncc4)cc3)c[nH]c2c1 [JNJ-26854165]; settings: top dose 10 µM
Description: as §1

[13] = compound: COc1cc(N2CCC(N3CCN(C)CC3)CC2)ccc1Nc1ncc(Cl)c(Nc2ccccc2S(=O)(=O)C(C)C)n1 [NVP-TAE684]; settings: top dose 2 µM
Description: as §1

[14] = compound: Cc1sc2c(c1C)C(c1ccc(Cl)cc1)=N[C@@H](CC(=O)OC(C)(C)C)c1nnc(C)n1-2 [JQ1]
Description: as §1

[15] = compound: CC(=O)O[C@@]12CO[C@@H]1C[C@H](O)[C@@]1(C)C(=O)[C@H](O)C3=C(C)[C@@H](OC(=O)[C@H](O)[C@@H](NC(=O)OC(C)(C)C)c4ccccc4)C[C@@](O)([C@@H](OC(=O)c4ccccc4)[C@H]21)C3(C)C [Docetaxel]; settings: top dose 0.0125 µM
Description: as §1

[16] = top dose 1 µM, screen: GDSC drug entry 1218, top dose inferred
[17] = top dose 2.56 µM, screen: GDSC drug entry 163

RS4-11 (leukaemia, suspension)
AUC [1]: 0.786 | IC50 [1]: 7840 nM | AUC [2]: 0.986 | IC50 [2]: > 10000 nM | AUC [3]: 0.02 | IC50 [3]: < 20 nM | AUC [4]: 0.592 | IC50 [4]: 280 nM | AUC [5]: 0.554 | IC50 [5]: 11.1 nM | AUC [6]: 0.975 | IC50 [6]: > 1020 nM | AUC [7]: 0.925 | IC50 [7]: > 16000 nM | AUC [8]: 0.989 | IC50 [8]: > 2000 nM | AUC [9]: 0.943 | IC50 [9]: > 2000 nM | AUC [10]: 0.168 | IC50 [10]: 138 nM | AUC [11]: 0.732 | IC50 [11]: 68.2 nM | AUC [12]: 0.798 | IC50 [12]: 4290 nM | AUC [13]: 0.94 | IC50 [13]: > 2000 nM

SH-4 (melanoma, adherent)
AUC [1]: 0.964 | IC50 [1]: > 20000 nM | AUC [2]: 0.975 | IC50 [2]: > 10000 nM | AUC [3]: 0.288 | IC50 [3]: 57.1 nM | AUC [4]: 0.915 | IC50 [4]: > 2560 nM | AUC [5]: 0.957 | IC50 [5]: > 128 nM | AUC [6]: 0.969 | IC50 [6]: > 1020 nM | AUC [7]: 0.956 | IC50 [7]: > 16000 nM | AUC [8]: 0.973 | IC50 [8]: > 2000 nM | AUC [9]: 0.968 | IC50 [9]: > 2000 nM | AUC [14, 16]: 0.97 | IC50 [14, 16]: > 1000 nM | AUC [14, 17]: 0.506 | IC50 [14, 17]: 168 nM | AUC [10]: 0.697 | IC50 [10]: 6130 nM | AUC [11]: 0.796 | IC50 [11]: 207 nM | AUC [12]: 0.851 | IC50 [12]: > 10000 nM | AUC [13]: 0.8 | IC50 [13]: 1680 nM

SK-LMS-1 (soft tissue, adherent)
AUC [1]: 0.837 | IC50 [1]: 12400 nM | AUC [2]: 0.965 | IC50 [2]: > 10000 nM | AUC [3]: 0.022 | IC50 [3]: < 20 nM | AUC [4]: 0.986 | IC50 [4]: > 2560 nM | AUC [5]: 0.782 | IC50 [5]: 50.8 nM | AUC [6]: 0.987 | IC50 [6]: > 1020 nM | AUC [7]: 0.983 | IC50 [7]: > 16000 nM | AUC [8]: 0.902 | IC50 [8]: > 2000 nM | AUC [9]: 0.74 | IC50 [9]: 583 nM | AUC [14, 16]: 0.983 | IC50 [14, 16]: > 1000 nM | AUC [14, 17]: 0.556 | IC50 [14, 17]: 225 nM | AUC [10]: 0.262 | IC50 [10]: 272 nM | AUC [11]: 0.748 | IC50 [11]: 79.2 nM | AUC [12]: 0.861 | IC50 [12]: 7790 nM | AUC [15]: 0.471 | IC50 [15]: 0.652 nM

SKM-1 (haematopoietic neoplasm, suspension)
AUC [2]: 0.981 | IC50 [2]: > 10000 nM | AUC [7]: 0.984 | IC50 [7]: > 16000 nM | AUC [8]: 0.983 | IC50 [8]: > 2000 nM | AUC [9]: 0.972 | IC50 [9]: > 2000 nM | AUC [14, 16]: 0.979 | IC50 [14, 16]: > 1000 nM | AUC [11]: 0.96 | IC50 [11]: > 256 nM | AUC [12]: 0.735 | IC50 [12]: 3180 nM | AUC [13]: 0.95 | IC50 [13]: > 2000 nM

SW872 (soft tissue, adherent)
AUC [1]: 0.978 | IC50 [1]: > 20000 nM | AUC [3]: 0.565 | IC50 [3]: 472 nM | AUC [4]: 0.979 | IC50 [4]: > 2560 nM | AUC [5]: 0.869 | IC50 [5]: 99.7 nM | AUC [6]: 0.986 | IC50 [6]: > 1020 nM | AUC [7]: 0.986 | IC50 [7]: > 16000 nM | AUC [9]: 0.98 | IC50 [9]: > 2000 nM | AUC [14, 16]: 0.988 | IC50 [14, 16]: > 1000 nM | AUC [14, 17]: 0.632 | IC50 [14, 17]: 356 nM | AUC [10]: 0.365 | IC50 [10]: 551 nM | AUC [11]: 0.571 | IC50 [11]: 24.5 nM | AUC [12]: 0.904 | IC50 [12]: > 10000 nM | AUC [13]: 0.741 | IC50 [13]: 562 nM
